Sequences and labels used below:
B1: GBRAP_125_3094 (protein)
chain: EEEALLAALRRLALALGFSEEEAEELAELAARSSLRQTLYALFAAEGYEELADLVEKLTEEQAREALLRLAAWLDAHPDASREEVVARAREIAEELLAAA
B2: GBRAP_26_5444 (protein)
chain: VEELVDKVRDEMDALIDELLPPELAGPAKAELDTLLLELEEFFEKNINDEEALKKAAEEFLKEFREGLEELGVPEEKREKLVAALEEKLKKMLEELKKEK
B3: GBRAP_78_6670 (protein)
chain: EVEELIDKALEHISKASKIVQKLDADTQLEILGLLVDAASHLLEAEENGFDLKELEEALKELEKALKLLKKLDTEEAKAAAEEVEKAIKAVKEAIKLLKE
B4: GBRAP_74_6556 (protein)
chain: SAELLARMRELREAKDLAGLIELAEENVDKLTPEEAAEALTILATAVVEHFEEMTDEELERAMDAIVRLELKIPNELITDELARLIAEATRLAVERLKEK
B5: GBRAP_74_6532 (protein)
chain: MEEIIKEIEKLIESGKPEDLIEAIRLAREKLDKETRIEILDKIAKKVLEKIDELSYEEVEELLDEFVKLEEELDEEEWTDTQLDALAALAAKAVEYEKEK
B6: GBRAP_160_4523 (protein)
chain: SERLEEIKKKIEEAAEEAIEMIKGQTAEQRATIVDGEFGALAMELALDENATDEEVDVVLKARDKLVATILANPDLTDEEVRELIEKAREEIIKELEKLF
B7: GBRAP_195_5408 (protein)
chain: MKVEYAVLRVTASDTPEQILAKIEKIVKEVKEKSNADLVLVVARDPSVPESVIRDAVAEAEKKYPSIKITVEIFDDISLPLETLEKFAEMLALNEEEEKE
B8: GBRAP_52_6048 (protein)
chain: MRERIRRIVEEILEAVLAGDEERARALLREVFETFSDEELELFIEEMAELARRARPEEFDAVARLVELAVEEAEEAGRPEEFADLLEARVYAALYEAEQR
B9: GBRAP_160_4585 (protein)
chain: SEEKEKAKKIIKEEMEEAKEMVVGESAEQRATIVLGAGGVIIMELDELEEATDELLDFVDEVFDALAAEILANPDLTDEEVNALIDKAEKEMLEAVDKYF
B10: GBRAP_11_2662 (protein)
chain: KLEDLKEAYELARKLAETLKKLIEEGVDNEELQAKAEELLEKLKKLAEEKLSEAIRSEVEVLVELWKEFKADKENRLEYAQQLLAGAQVLAGNLQLEIDE
B11: GBRAP_39_5713 (protein)
chain: DEAEELELLASDLEARFAAYQYEKGISEEEAVAEGLAFWRELAEARPEHREELLALIEEAEELGPEAREALAAGAAGIRAGLPLEEAIAVVRYRFEQLKA
B12: GBRAP_80_6769 (protein)
chain: MEERIKEVLEELEKINPEIAELTKELIKVAKELGVPLELILDFAEAILELAKKDKEKALELVKKALEELKKALEEGDKELAIAILVDAISEALLAVEELE
B13: GBRAP_128_3501 (protein)
chain: SLEEAVAETERLMAEVAEASPEEARRLTEEIVALIASVDRETAEAMADAIEARLPELSPEALDVLADTLRELRPKVDPFIARLLAGIQVEALNQLEELEE
B14: GBRAP_125_2973 (protein)
chain: DREALLEDLRLVALALGLSEEDAEEAAELAAASSVRGTLYAIARALGWEAVADAIERLTEEEAREVLRRVAAAIRADPSLTPEEVRALLLEEAEAAIAAR
B15: GBRAP_11_2898 (protein)
chain: KLELLKKLKELLEKLIELLKKILEEGPEDEKLLEEALKVAEEALKLAEKVLDESDVELMKELLELLKKAKEDPENAEQYLKEALAVARVLLGQVLLEIEE
B16: GBRAP_128_3444 (protein)
chain: SMEEMKERAEKILKEFKEKTKEGPEAAAEFFIEELKKVNLEEAEIITKKVIEYLKKQPIELATKILEEIMRLSKKLSPEKRAIVLEYVSPLLYELEEKEE
B17: GBRAP_160_4691 (protein)
chain: SAKVEAAKKFITEEFEEVVSLFDEVTREELAAAVRVAFGQIRLELEELGLLTDEVDEVIDEEEEKIVNAILTDPNLTKEELKAMLEEAKEKIMAKIEKEA
B18: GBRAP_128_3504 (protein)
chain: STAAAVAEAEALMAAIGEADPETARALVEELVALLAAADPETAQAIADAAIAQLPKLDAEALEIVADTLAALRPSLDPEVANLVADIQVEALNLALEKEE
B19: GBRAP_160_4131 (protein)
chain: KEELKELIEEIKEITEEAIKMIEGESVEEARVIAKVALGEIVMEVESNEAVSEELEEKVGEIADEAEETLEANPDLSVEEIKELLKEAAEKVIELLKKEL

The full ranking holds about 4,500 sequences; the median of “median log2 fold change of GCK-ALFA target abundance (FLAG IP / Myc IP barcode read proportion)” is about 0.078, and the lowest 2% start at about -0.6. The list shows a part of the results.

Chain of GABARAP, O95166 (O95166 whole entry, the tested form may be a part): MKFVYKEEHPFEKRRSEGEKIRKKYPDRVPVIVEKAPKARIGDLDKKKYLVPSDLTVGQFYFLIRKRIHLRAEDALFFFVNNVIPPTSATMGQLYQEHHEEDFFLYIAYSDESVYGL

The target in the assay is GABARAP, O95166. In words: median log2 fold change of GCK-ALFA target abundance (FLAG IP / Myc IP barcode read proportion) (log2 ratio); each designed protein is fused to an ALFA-tag nanobody in HEK293 cells to bring the named protein to FLAG-tagged glucokinase (GCK); Myc marks an untargeted standard; higher = target protein stabilised (more abundant). The note with it: target protein: 3xFLAG-MCP-GCK-ALFA reporter; HEK293 landing pad (RPLP). The essentials:
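Binders fused to an ALFA nanobody were recombined as a library into HEK293 landing-pad cells, which were induced with 2 μg mL^−1 doxycycline and then transfected to express a FLAG-tagged target and a Myc-tagged standard. After 48 h, circular RNA barcodes recovered by anti-FLAG and anti-Myc immunoprecipitation of lysates were reverse transcribed, amplified and sequenced. Each binder's target abundance is the median log2 ratio of FLAG to Myc barcode read proportions, from barcodes present at ≥10^−7 in both replicates, binders carrying ≥3 barcodes per replicate, a 10^−6 pseudocount and pooled replicates.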
In the case of B1, the “median log2 fold change” value turned out to be 0.075.

As for B2, the “median log2 fold change” value was 0.245.

Take B3: the “median log2 fold change” value amounted to 0.0724.

On to B4, for which the “median log2 fold change” value amounted to 0.25.

Regarding B5, the “median log2 fold change” value was -0.214.

For B6, the “median log2 fold change” value worked out at 0.174.

For the molecule B7, the “median log2 fold change” value came to 0.19.

On to B8, for which the “median log2 fold change” value was determined as 0.187.

As for B9, the “median log2 fold change” value is -0.264.

As to B10, the “median log2 fold change” value was determined as 0.169.

B11: the “median log2 fold change” value worked out at 0.274.

For B12, the “median log2 fold change” value is 0.194.

In the case of B13, the “median log2 fold change” value is 0.214.

Regarding B14, the “median log2 fold change” value was -0.413.

Consider B15, for which the “median log2 fold change” value is -0.29.

For B16, the “median log2 fold change” value came to 0.292.

With B17, the “median log2 fold change” value is 0.203.

With B18, the “median log2 fold change” value is 0.222.

Turning to B19, the “median log2 fold change” value came out at 0.0582.

Source of the values: the supplement of paper PMC12632987.
